# Where “and” joins values, the source holds several entries; their conditions need not be identical. Identical values can stand only once. The whole screen tested about 280,000 compounds, of which about 1,100 (0.39%) were called active. Inconclusive results, whose numbers are uncertain, are shown with a selection of clear calls. Calls follow the shape of the dose curve; as a rule, active = well fitted inhibition curve with a large enough effect; inconclusive = small, poorly fitted or top-dose-only effect, or effect the other way; inactive = flat fitted curve, though single readings scatter. Where the call is inconclusive, the potency comes from a doubtful curve fit.
# Molecular target: Microtubule-associated protein tau (Homo sapiens) (UniProt P10636)
# Sequence of UniProt P10636 (P10636 whole entry, looked up): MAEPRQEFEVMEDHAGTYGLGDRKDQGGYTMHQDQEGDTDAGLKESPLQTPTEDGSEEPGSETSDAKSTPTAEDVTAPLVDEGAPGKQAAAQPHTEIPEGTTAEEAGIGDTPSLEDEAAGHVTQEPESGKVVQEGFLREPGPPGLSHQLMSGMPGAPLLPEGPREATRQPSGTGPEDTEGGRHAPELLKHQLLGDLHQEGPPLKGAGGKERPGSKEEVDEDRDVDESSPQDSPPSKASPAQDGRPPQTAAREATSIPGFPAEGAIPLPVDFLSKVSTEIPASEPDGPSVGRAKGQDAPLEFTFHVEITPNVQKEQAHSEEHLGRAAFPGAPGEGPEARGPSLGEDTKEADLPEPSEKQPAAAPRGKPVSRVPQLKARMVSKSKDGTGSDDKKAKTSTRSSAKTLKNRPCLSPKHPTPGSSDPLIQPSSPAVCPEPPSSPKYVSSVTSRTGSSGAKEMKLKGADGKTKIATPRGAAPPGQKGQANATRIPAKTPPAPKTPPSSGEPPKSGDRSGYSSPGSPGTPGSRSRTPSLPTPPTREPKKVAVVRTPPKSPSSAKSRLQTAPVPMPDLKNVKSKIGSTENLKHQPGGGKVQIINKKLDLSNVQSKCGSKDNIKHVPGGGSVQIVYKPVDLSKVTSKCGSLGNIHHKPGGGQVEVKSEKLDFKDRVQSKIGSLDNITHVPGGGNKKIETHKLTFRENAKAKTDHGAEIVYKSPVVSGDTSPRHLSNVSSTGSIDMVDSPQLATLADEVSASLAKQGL
# Test: qHTS for Inhibitors of Tau Fibril Formation, Fluorescence Polarization; also: nearly all actives have a fitted effect of over 55% in size
# Settings: K18 P301L tau heparin fibrillization, Alexa594 FP, 6 h; series mostly up to 57.7 µM
# In short: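 Human tau K18 […] P301L fragment, 15 uM unlabeled plus 0.24 uM Alexa 594-labeled tau (final), with compound and 20 uM heparin in 100 mM sodium acetate pH 7; 6 hr at 37 C, then Alexa 594 FP read.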
# % is scaled to controls: 0 for no effect and ±100 for the full control effect; potency is read from the fitted curve at half-maximal effect; tags tell the direction and shape of the fitted curve.
SMILES,Potency,"activity, negative = inhibition"
Cc1cccc2nc(CSc3ccc(Cl)cc3)cn12,inactive,–
Cc1cccc(N2CSC3=C(C#N)C(c4ccc(C)o4)CC(=O)N3C2)c1 (stereo unspecified),"inconclusive: 28.2 µM [inhibitor, partial curve]",–
CC(C)(C)c1cc(C(=O)NNc2cc(C(F)(F)F)ccc2Cl)n(Cc2ccccc2)n1,"inconclusive: 17.8 µM [inhibitor, single point]",–
CCC(Cc1ccccc1)n1c(=S)[nH]c2ccccc2c1=O (stereo unspecified),"inconclusive: 28.2 µM [inhibitor, partial curve]",–
NC(=O)SCC(=O)Nc1ccc(Cl)cc1,"inconclusive: 15.8 µM [inhibitor, partial curve]",–
NNC(=O)CCc1nc2ccccc2[nH]1,inactive,–
O=C(Nc1nnc(COc2ccccc2)s1)Nc1ccccc1F,"inconclusive: 20 µM [inhibitor, single point]",–
O=C(Cc1ccccc1)Nn1c(O)c(/C=C2\C=Nc3ccccc32)sc1=S,"inconclusive: 15.8 µM [inhibitor, single point]",–
COc1ccc(OC)c(/C=N/NC(=O)c2[nH]nc3c2CCc2ccccc2-3)c1,"inconclusive: 25.1 µM [inhibitor, single point]",–
COc1ccc(C(=O)NC(=S)NNC(=O)c2cnccn2)cc1OC,inactive,–
Cc1ccc(C(=O)Oc2cccnc2)cc1[N+](=O)[O-],inactive,–
COc1cc(C(O)P(=O)(OC(C)C)OC(C)C)cc(OC)c1OC (stereo unspecified),"inconclusive: 8.91 µM [inhibitor, single point]",–
Cc1cccc(NC(=O)CSc2nc(NS(=O)(=O)c3ccccc3)cc(=O)[nH]2)c1,"inconclusive: 1.41 µM [inhibitor, partial curve]",–
CC(=O)c1cccc(NC(=O)c2cc(-c3ccc(Cl)s3)nc3ccccc23)c1,"inconclusive: 8.91 µM [inhibitor, partial curve]",–
CC(C)(C)C(=O)C(Cl)C(=O)Nc1ccccc1 (stereo unspecified),"inconclusive: 7.94 µM [inhibitor, partial curve]",–
Cc1ccc(NC(=S)Nc2ccc3[nH]c(=O)[nH]c3c2)cc1,"inconclusive: 0.224 µM [activator, partial curve, poor fit]",–
COc1ccc(/C(C)=N/N=C(\C)c2ccc(OC)cc2OC)c(OC)c1,"inconclusive: 20 µM [inhibitor, single point]",–
C1=C(C(c2nnnn2C2CCCCC2)N2CCCCC2)COc2ccccc21 (stereo unspecified),"inconclusive: 3.98 µM [activator, single point]",–
Cc1cc(NC(=O)c2cnn3c(C(F)(F)F)cc(-c4ccccc4)nc23)no1,"inconclusive: 35.5 µM [activator, single point]",–
COc1cccc(OC)c1-c1nn(-c2ncc(C(F)(F)F)cc2Cl)c(=O)o1,"inconclusive: 39.8 µM [inhibitor, single point]",–
Cc1ccc(-n2c3c(c(=O)[nH]c2=O)C(NC(=O)c2ccccc2F)(C(F)(F)F)C(=O)N3)cc1C (stereo unspecified),"inconclusive: 5.01 µM [inhibitor, single point]",–

SMILES,Potency,"activity, negative = inhibition"
CN(C)S(=O)(=O)c1cc(NC(=O)CSc2nn(-c3ccc(Cl)cc3)c(=S)s2)ccc1Cl,active: 25.1 µM,–
Cc1ccc(CNc2ccc(-c3nc(-c4ccco4)no3)cc2[N+](=O)[O-])cc1,"inconclusive: 31.6 µM [inhibitor, partial curve]",–
CCN(CC)CC(=O)Nc1c(C)cccc1C,"inconclusive: 39.8 µM [inhibitor, single point] and inconclusive: 141 nM [inhibitor, full curve, poor fit]",–
COc1ccc(Cl)cc1NC(=O)CN(c1cc(C)cc(C)c1)S(=O)(=O)c1c(C)n[nH]c1C,"inconclusive: 11.2 µM [inhibitor, partial curve]",–
CCc1cccc2cc3c(N)c(C(=O)Nc4ccc(S(=O)(=O)N5CCCC5)cc4)sc3nc12,"inconclusive: 35.5 µM [activator, single point]",–
COc1ccc(Nc2cc(C)nc(-n3nc(C)cc3C)n2)cc1Cl,"inconclusive: 17.8 µM [activator, single point]",–
CC(=O)OCC1OC(C#CCC2CCCCC2)C=CC1OC(C)=O (stereo unspecified),–,inactive: -7.58% [at 11.6 µM]
COCCNC(=S)c1ccc(Br)cc1,inactive,–
Oc1c(Br)cc(Br)cc1CNc1ccc(F)cc1,inactive,–
Cc1cccc(CSc2nc3ccncc3n2CC(=O)Nc2cc(C)cc(C)c2)c1,"inconclusive: 11.2 µM [inhibitor, partial curve, poor fit]",–
Cc1ccc(-c2nnc(Nc3ccc(Br)cc3)c3ccccc23)cc1S(=O)(=O)N1CCCCC1,"inconclusive: 17.8 µM [inhibitor, partial curve]",–
CC(=O)Nc1ccc(OCC(O)Cn2c3ccccc3c3ccccc32)cc1 (stereo unspecified),"inconclusive: 22.4 µM [inhibitor, single point]",–
COc1cccc(NC(=O)CSc2nc3ccc(NC(=O)c4ccco4)cc3s2)c1,"inconclusive: 11.2 µM [inhibitor, partial curve]",–
O=C(CN1C(=O)C(c2ccc(F)cc2)=NC12CCCCCC2)Nc1ccc(F)c(Cl)c1,"inconclusive: 14.1 µM [inhibitor, partial curve]",–
CCC(=O)NC1CC(=O)N(c2ccc3c(c2)OCCO3)C1 (stereo unspecified),inactive,–
COc1ccccc1NC(=O)Cn1c(=O)n(Cc2ccco2)c(=O)c2oc3ccccc3c21,"inconclusive: 39.8 µM [inhibitor, single point]",–
COc1cc(C2C3=C(Nc4ncnn42)c2ccccc2CC3)cc(OC)c1OC (stereo unspecified),"inconclusive: 39.8 µM [inhibitor, single point]",–
Cn1c(SCc2cnc(-c3ccccc3)s2)nnc1C1COc2ccccc2O1 (stereo unspecified),inactive,–
Cc1ccc(C(=O)NC(=S)Nc2ccc(NC(=O)c3cccc(Cl)c3)cc2)cc1,"inconclusive: 3.55 µM [inhibitor, full curve]",–
CCC(C)N1C(=O)S/C(=C/c2ccc(N3CCOCC3)cc2C)C1=O (stereo unspecified),"inconclusive: 28.2 µM [activator, single point]",–

# From PubChem BioAssay AID1468 (National Center for Advancing Translational Sciences (NCATS), 2008)
